This passage reports binding signal results from paper PMC7819943, “Rice protein-binding microarrays: a tool to detect cis-acting elements near promoter regions in rice”.

The other results are listed elsewhere or left out.

The target in this test is T1, OsWOX13 (Oryza sativa, UniProt Q5QMM3 1-267).
T1 sequence: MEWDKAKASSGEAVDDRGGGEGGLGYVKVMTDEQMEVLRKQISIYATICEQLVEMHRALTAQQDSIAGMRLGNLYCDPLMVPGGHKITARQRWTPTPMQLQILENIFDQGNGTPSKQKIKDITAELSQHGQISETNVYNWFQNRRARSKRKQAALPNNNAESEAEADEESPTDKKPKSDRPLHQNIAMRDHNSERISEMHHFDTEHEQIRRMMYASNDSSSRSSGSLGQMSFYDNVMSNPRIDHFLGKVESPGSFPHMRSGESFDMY
The test can be described thus: protein-binding microarray (RPBM); PBS, 2% BSA, 51.3 ng/ul salmon testes DNA, 50 uM zinc acetate, 200 nM TF, 25 C, 1 h; high values mean tight binding. To be noted: protein: recombinant; tags: N-terminal polyhistidine and DsRed monomer fusion (pET32a); label: CyDye5-dUTP incorporated in the synthesized complementary strand; 3' TTTTT single-stranded linker to array surface; dsDNA, one strand shown. The essentials:
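A custom Agilent array was converted to double-stranded form by primer extension with Cy5-dUTP and blocked with 2% BSA. Protein at 200 nM in PBS with 2% BSA, salmon testes DNA and 50 µM zinc acetate was applied for 1 h at 25 °C, followed by washing. The proteins were polyhistidine–DsRed N-terminal fusions of transcription factors, expressed in E. coli BL21-CodonPlus and Ni–NTA-purified. The binding signal is per-feature fluorescence intensity (arbitrary units) from an Axon 4000B scanner.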
For the sequence “ATGTTATAATGCGTCAATTGATGGCAACTGTTTCCATTGTCGGAGTCACCTAGTGCAG”, the binding signal was 6940 fluorescence intensity (a.u.).
With “GGGTTTGAATTGATGGAGTGATTTTAAATAATCGCTGGGCCGGAGTCACCTAGTGCAG”, the binding signal was 32100 fluorescence intensity (a.u.).
Take “AGAGATCAATTACCAAGAAACTGAGAGGAAACACACAGATCGGAGTCACCTAGTGCAG”: the binding signal was 5620 fluorescence intensity (a.u.).
To “ATTAATCATGTTTTATCATCTAACAACAATGAAAATACGACGGAGTCACCTAGTGCAG” belongs 3510 fluorescence intensity (a.u.); to “TATAACCAAGAGCCCAACATGACATATCTAATTAGAATACCGGAGTCACCTAGTGCAG”, 18200 fluorescence intensity (a.u.); to “GGTTTTATTTTCTTTTCTTCGTCGTCTCCCACACTCTCCGCGGAGTCACCTAGTGCAG”, 3670 fluorescence intensity (a.u.).
The result for “TGGAATTGATTATGATGCTGTTTCCTTCATGGGAGCTCTACGGAGTCACCTAGTGCAG” reads 31900 fluorescence intensity (a.u.); that for “ATATAAACATACAATTAATAGTTTATTAAAAGAGTGTGTCCGGAGTCACCTAGTGCAG”, 20600 fluorescence intensity (a.u.).
To “TGTTTATAACTGTAATGACATATAAGCACCACATAGGGGCCGGAGTCACCTAGTGCAG” belongs 5560 fluorescence intensity (a.u.); to “ATAATACTGATTAATCTTATGCATTTCGATTAATCTGTAACGGAGTCACCTAGTGCAG”, 13500 fluorescence intensity (a.u.).
Take “GTGCCTTCAAATTAAATTCCCATCCAATCACCTCTCTTTTCGGAGTCACCTAGTGCAG”: the binding signal is 8930 fluorescence intensity (a.u.).
The result for “CTTAATTTTCTACTAACTAAAACCATATACTAAATTAAGCCGGAGTCACCTAGTGCAG” reads 32200 fluorescence intensity (a.u.); that for “TAGTGACTAATTGAAATTTAGTAGTATATGATATGATGTGCGGAGTCACCTAGTGCAG”, 30500 fluorescence intensity (a.u.).
The result for “TGTAATTTATCCCGTTGTTACGGTATCCCGTTCTCTATTTCGGAGTCACCTAGTGCAG” reads 5860 fluorescence intensity (a.u.); that for “TTAAATTGGTATTGATAGTTGAGGGAGTCGTTATATCCGACGGAGTCACCTAGTGCAG”, 41700 fluorescence intensity (a.u.); that for “CGGGACAAATTAATATTCTGTTGTTGCTTCGCTTGGCTTTCGGAGTCACCTAGTGCAG”, 6790 fluorescence intensity (a.u.).
Consider “CTAATTTCAAAATTTAAAGATACATTCTCCAATCCAAGGACGGAGTCACCTAGTGCAG”, for which the binding signal was 3420 fluorescence intensity (a.u.).
To “TAAAATTACGAGTTGTCAGTGCTGTGCCTATATGTGCACGCGGAGTCACCTAGTGCAG” belongs 4730 fluorescence intensity (a.u.); to “TGGGATTGGGAAATAAATGAAGGGTTAGGATTAAATGGAACGGAGTCACCTAGTGCAG”, 24100 fluorescence intensity (a.u.).
To “TGGTAGCAATCAATTTTGCCTGTCTAGTGACTGGAATTTCCGGAGTCACCTAGTGCAG” belongs 19000 fluorescence intensity (a.u.); to “ATAAATAAATTTCAGCAAATTAAGGTCGAGAGATCACCTCCGGAGTCACCTAGTGCAG”, 11300 fluorescence intensity (a.u.); to “TCAACCAATCACAAACATTCTCTTTCATCTACTTTATCTTCGGAGTCACCTAGTGCAG”, 12200 fluorescence intensity (a.u.).
Regarding “GAGATTGTGATCAAAATTTCAAAATTCAGACCATCGAAATCGGAGTCACCTAGTGCAG”, the binding signal was 3210 fluorescence intensity (a.u.).
To “TATCCTAACAGTTACTCTTCAATTATATGTTAATTATATACGGAGTCACCTAGTGCAG” belongs 8400 fluorescence intensity (a.u.); to “TAAACTAACGGAATGAATTAAACAGTTGGTATTGGGTAACCGGAGTCACCTAGTGCAG”, 3280 fluorescence intensity (a.u.); to “TAGGATGTTAATTACTCTAATGAAATGAAATAGTTCGAGTCGGAGTCACCTAGTGCAG”, 15200 fluorescence intensity (a.u.).
Consider “ACTGTGATTTGGAAATCCCATGAATTGAATAGGCCTGAAGCGGAGTCACCTAGTGCAG”, for which the binding signal was 22500 fluorescence intensity (a.u.).
With “TGATAATAGATAGATGGTTAATATATATGTGTGGGTCCACCGGAGTCACCTAGTGCAG”, the binding signal is 20000 fluorescence intensity (a.u.).
On to “TCTCAAATTGATCATCATATAATCACATGGACACGAATTTCGGAGTCACCTAGTGCAG”, for which the binding signal was 19100 fluorescence intensity (a.u.).
The result for “ACTAATTGGACAGTCCGACTGTAAATCGCAAGACTAATATCGGAGTCACCTAGTGCAG” reads 26600 fluorescence intensity (a.u.); that for “GGTAACAATTGATTTGAGAGATCCAATGTTGAACGGTAGCCGGAGTCACCTAGTGCAG”, 27900 fluorescence intensity (a.u.); that for “TCTCTGTAACTAGATGATCAATTAACCGATTTCATGCATGCGGAGTCACCTAGTGCAG”, 11200 fluorescence intensity (a.u.).
As for “TCTTTTCAAATTGATCATCATCTAACCTGTCTATTTGTTTCGGAGTCACCTAGTGCAG”, the binding signal was 19400 fluorescence intensity (a.u.).
To “CCTAATATCTATGATCAATGTATTTATTTGATCCGTAGCTCGGAGTCACCTAGTGCAG” belongs 4360 fluorescence intensity (a.u.); to “GAGACGAATCTTTTAAACCTAATTAATATGTCATTAGCACCGGAGTCACCTAGTGCAG”, 3730 fluorescence intensity (a.u.); to “TTTCGGTAAATTGGAGGTCGTGGGAACAAATTCTTTCACACGGAGTCACCTAGTGCAG”, 4950 fluorescence intensity (a.u.).
The result for “ATAACGTAATTAAACATTTATCAAAGAACCATCCCCTCCACGGAGTCACCTAGTGCAG” reads 25800 fluorescence intensity (a.u.).
On to “ATGTGTTCCACTGATTAATCGGATGATGAGGTAGTAGATGCGGAGTCACCTAGTGCAG”, for which the binding signal is 5680 fluorescence intensity (a.u.).
The result for “TTAGAACTTAATTGCATTTCAGTGAATCCGTGAATGATAACGGAGTCACCTAGTGCAG” reads 8550 fluorescence intensity (a.u.).
For the sequence “AAAGTTAACTTGATCAAACTTGCTTAACATAAGATGTGATCGGAGTCACCTAGTGCAG”, the binding signal was 4350 fluorescence intensity (a.u.).
To “ATGATAGATCAATTTGTTAAAATATTATGCAAATAATGTGCGGAGTCACCTAGTGCAG” belongs 22800 fluorescence intensity (a.u.); to “ATAATAATAGATTCCGTTTCGACAGTAACATTTCCGATATCGGAGTCACCTAGTGCAG”, 3560 fluorescence intensity (a.u.).
